Where “and” joins values, the source holds several entries; their conditions need not be identical. Equal entries are not always repeated. Hit rate of the full screen: of about 360,000 compounds, about 11,000 (3.1%) were called active. The inconclusive results got no clear call from the source; some entries with a clear call stand among them for comparison. Calls come from the whole dose curve; as a rule, active = well fitted inhibition curve with a large enough effect; inconclusive = small, poorly fitted or top-dose-only effect; inactive = no such curve, though single readings can be large or run the other way. Where the call is inconclusive, the potency comes from a doubtful curve fit.
Biological target: Schistosoma mansoni thioredoxin glutathione reductase (TGR) (UniProt Q962Y6)
Assay: qHTS Assay for the Inhibitors of Schistosoma Mansoni Peroxiredoxins; note: nearly all actives have a fitted effect of over 60% in size
Settings: purified TGR, DTNB reduction, TNB absorbance 405 nm; activity change, negative = inhibition: at 114 µM (top of the series) unless noted
Outline: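 TGR 20 nM + NADPH 100 uM (dispensed conc.), cpd preinc 15 min RT; start with NADPH (500 uM addition) then DTNB (15 mM addition). Kinetic TNB absorbance, 405 nm filter. Four-parameter Hill fit across titration.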
% is set by controls: 0 for no effect and ±100 for the full control effect; potency is the fitted concentration of half-maximal effect; tags give direction and shape of the fitted curve.

Q: How did the Potency turn out when `CC1(N2CCOCC2)CC2(O)C(=[N+]1[O-])CCc1nonc12` (centres undefined) was run?
A: Its Potency is inconclusive: 28.2 µM [inhibitor, partial curve].

Q: For `CC(=O)c1ccc(S(=O)(=O)N(C)C(C)CCc2ccco2)cc1` (centres undefined), which Potency is on record?
A: Its Potency is active: 39.8 µM.

Q: How did the Potency turn out when `CCOC(=O)c1c(NS(=O)(=O)c2cccc(OC)c2)sc2c1CCC2` was run?
A: Its Potency is inconclusive: 44.7 µM [inhibitor, partial curve].

Q: `O=C1C(Cl)=C(Nc2ccc(O)cc2)C(=O)c2ccccc21` was tested. Which Potency did it give?
A: Its Potency is active: 2.24 µM.

Q: With `O=C(NCC(c1cccs1)S(=O)(=O)c1cccs1)c1c(F)cccc1F` (centres undefined) as the molecule, how does the Potency read?
A: Its Potency is inconclusive: 44.7 µM [inhibitor, partial curve].

Q: With `CCSc1oc(-c2ccco2)nc1S(=O)(=O)c1ccc(C)cc1` as the molecule, how does the Potency read?
A: Its Potency is active: 39.8 µM.

Q: With `COc1cccc(-c2nc(=S)c3c(n2CCCO)CCCC3)c1` as the molecule, how does the Potency read?
A: Its Potency is inconclusive: 79.4 µM [inhibitor, single point].

Q: `Cc1cc2c(OCC(O)CN3CCCCC3)cccc2[nH]1` (centres undefined) was tested. Which Potency did it give?
A: Its Potency is inconclusive: 50.1 µM [inhibitor, partial curve].

Q: How did the Potency turn out when `CCOC(=O)C1CCCN(c2ccc([N+](=O)[O-])c3nonc23)C1` (centres undefined) was run?
A: Its Potency is inconclusive: 44.7 µM [inhibitor, partial curve].

Q: With `Cc1ccccc1NC(=O)C1Cc2ccccc2CN1C(=O)c1ccco1` (centres undefined) as the molecule, how does the Potency read?
A: The Potency was active: 11.2 µM.

Q: With `Cn1c(O)c(N=Nc2nc(-c3ccccc3)cs2)c2ccccc21` as the molecule, how does the “activity change, negative = inhibition” value read?
A: The value was inactive: 1.87%.

Q: With `CCOc1ccccc1CNC(=O)C1Cc2cc(S(=O)(=O)N3CCCCC3)ccc2N1C(C)=O` (centres undefined) as the molecule, how does the “activity change, negative = inhibition” value read?
A: The value was inactive: -19.4%.

Q: With `CCc1ccccc1NC(=O)C1COc2ccccc2O1` (centres undefined) as the molecule, how does the Potency read?
A: Its Potency is inconclusive: 39.8 µM [inhibitor, full curve, poor fit].

Q: How did the “activity change, negative = inhibition” value turn out when `COC(=O)c1ccccc1NC(=O)NCc1ccccn1` was run?
A: The value was inactive: 11.1%.

Q: Which “activity change, negative = inhibition” value does the source give for `COc1ccc2oc(/C=C/N(C)C)c(C(=O)c3ccc(Cl)cc3)c2c1` here?
A: The value was inactive: -32.6%.

Q: For `Cc1ccc(NC(=O)CNC(c2ccccc2)c2ccccc2)c(F)c1`, which “activity change, negative = inhibition” value is on record?
A: The value was inactive: -9.49%.

Q: `COc1ccc(C)cc1NC(=O)COC(=O)c1ccc2c(c1)OCO2` was tested. Which “activity change, negative = inhibition” value did it give?
A: The value was inactive: 5.23%.

Q: With `CC(C)CCOC(=O)C1[C@H]2C(=O)N(Cc3cccs3)C[C@]23C=C[C@H]1O3` (some centres undefined) as the molecule, how does the Potency read?
A: Its Potency is inconclusive: 44.7 µM [inhibitor, partial curve].

Q: How did the “activity change, negative = inhibition” value turn out when `CCCOc1ccc(C(=O)CCC(=O)OCC(=O)N2CC(=O)Nc3ccccc32)cc1` was run?
A: The value was inactive: 3.13%.

Q: For `COc1cc(CNc2ccc3[nH]c(=O)[nH]c3c2)ccc1OCc1cccc(C)c1`, which Potency is on record?
A: The Potency was inconclusive: 1.58 µM [inhibitor, full curve].

Q: For `Cn1nnnc1SCC(=O)NC(=O)Cc1ccccc1`, which Potency is on record?
A: The Potency was inconclusive: 39.8 µM [inhibitor, partial curve].

Q: For `COc1cc(NC(=S)NCCCO)c(OC)cc1Cl`, which Potency is on record?
A: Its Potency is inconclusive: 50.1 µM [inhibitor, partial curve].

Q: Which Potency does the source give for `CC(N1CCOC1=O)S(=O)(=O)c1ccccc1` (centres undefined) here?
A: Its Potency is inconclusive: 44.7 µM [inhibitor, partial curve].

Q: With `Cc1onc(-c2c(Cl)cccc2Cl)c1C(=O)N1CCN(c2ccccc2F)CC1` as the molecule, how does the “activity change, negative = inhibition” value read?
A: The value was inactive: -12.9%.

Q: For `CC(=O)c1ccc(NC(=O)CSc2nnc(Cc3cccn3C)n2-c2ccc(F)cc2)cc1`, which Potency is on record?
A: Its Potency is inconclusive: 14.1 µM [inhibitor, full curve].

Q: For `CC1(C)Cc2c(c(N3CCOCC3)nc3sc(-c4ccc(C(=O)O)o4)c(N)c23)CO1`, which Potency is on record?
A: Its Potency is inconclusive: 56.2 µM [inhibitor, partial curve].

Q: With `CC(=NC1CCN(Cc2ccccc2)CC1)c1c(O)n(C)c(=O)n(C)c1=O` as the molecule, how does the Potency read?
A: Its Potency is inconclusive: 44.7 µM [inhibitor, partial curve].

Q: For `Cc1cccc(CS(=O)(=O)Cc2ccc(C(=O)N3CCC4(CC3)OCCO4)o2)c1`, which Potency is on record?
A: The Potency was inconclusive: 44.7 µM [inhibitor, partial curve].

Q: With `CCOC(=O)C1(CCOc2ccccc2)CCN(Cc2ccc(O)c(OC)c2)CC1` as the molecule, how does the Potency read?
A: Its Potency is inconclusive: 56.2 µM [inhibitor, partial curve].

Q: For `Cc1ccc(S(=O)(=O)n2nc(-c3ccco3)nc2N)cc1`, which Potency is on record?
A: Its Potency is inconclusive: 50.1 µM [inhibitor, partial curve].

Q: Which Potency does the source give for `CCOc1ccc(NC(=O)C(c2ccccn2)N(C(=O)CCl)c2ccc(OCC)cc2)cc1` (centres undefined) here?
A: Its Potency is active: 44.7 µM.

Q: For `COc1cc(OC)c(NC(=O)c2cccc(F)c2)cc1Cl`, which “activity change, negative = inhibition” value is on record?
A: Its value is inactive: 2.65%.

Q: With `Cc1cc2cc(C(c3nnnn3Cc3ccco3)N3CCc4ccccc4C3)c(=O)[nH]c2cc1C` (centres undefined) as the molecule, how does the Potency read?
A: Its Potency is active: 3.55 µM.

Q: For `COc1ccc(S(=O)(=O)NCC(c2ccco2)S(=O)(=O)c2cccs2)cc1F` (centres undefined), which Potency is on record?
A: The Potency was active: 0.1 µM.

Q: For `COc1cc(C2C(C#N)=C(N)N(c3ccc(F)cc3)C3=C2S(=O)(=O)CC3)ccc1O` (centres undefined), which Potency is on record?
A: The Potency was active: 44.7 µM.

Q: `Cc1cccc2nc(CSCc3ccco3)cn12` was tested. Which Potency did it give?
A: The Potency was active: 28.2 µM.

Q: How did the Potency turn out when `O=C(/C=C/Nc1cccc(O)c1)c1ccccc1` was run?
A: Its Potency is inconclusive: 89.1 µM [inhibitor, single point].

Q: `CCN1CCN(c2nc(-c3cccs3)nc3ccccc23)CC1` was tested. Which Potency did it give?
A: The Potency was inconclusive: 89.1 µM [inhibitor, single point].

Q: Which Potency does the source give for `COc1cc(C2C3=C(CCCC3=O)Nc3c2c(C)nn3-c2cccc(C)c2)cc(OC)c1O` (centres undefined) here?
A: Its Potency is active: 39.8 µM.

Q: Which Potency does the source give for `CCCSc1cc(Cl)nc(N)n1` here?
A: Its Potency is inconclusive: 31.6 µM [inhibitor, single point].

Q: `CCNC(=O)c1ccc(C2SCC(=O)N2Cc2ccco2)cc1` (centres undefined) was tested. Which Potency did it give?
A: The Potency was inconclusive: 39.8 µM [inhibitor, partial curve].

Q: `COc1ccc(C(=O)Nc2ccccc2)cc1S(=O)(=O)NCc1ccco1` was tested. Which Potency did it give?
A: The Potency was active: 44.7 µM.

Q: For `O=C(Nc1nc(=O)n(C(=O)c2cccc(C(F)(F)F)c2)s1)c1ccccc1`, which Potency is on record?
A: The Potency was inconclusive: 39.8 µM [inhibitor, partial curve].

Q: For `Cc1ccc(NC(=O)c2ccc(Br)o2)cc1S(=O)(=O)N(C)C`, which Potency is on record?
A: Its Potency is inconclusive: 50.1 µM [inhibitor, partial curve].

Q: For `Cc1cc(C(=O)CN2CC(C)OC(C)C2)c(C)n1-c1ccccc1` (centres undefined), which Potency is on record?
A: Its Potency is active: 44.7 µM.

Q: For `CCCOc1ccc(Cl)cc1/C=C1/C(=O)ON=C1C`, which Potency is on record?
A: The Potency was active: 14.1 µM.

Q: Which Potency does the source give for `CC1=N/C(=C/c2cccnc2)C(=O)O1` here?
A: Its Potency is active: 22.4 µM.

Q: Which Potency does the source give for `COCCNC(=O)Cn1cc(/C=C2\C(=O)NC(=O)N(c3cccc(C)c3C)C2=O)c2ccccc21` here?
A: Its Potency is inconclusive: 44.7 µM [inhibitor, partial curve].

Q: Which “activity change, negative = inhibition” value does the source give for `NC(=O)Nc1ccc(C(=O)OCC(=O)NC2CCCCC2)cc1` here?
A: Its value is inactive: -0.749%.

Q: `Cc1ccc(/C=C/C(=O)c2ccccc(=O)c2O)c(C)c1` was tested. Which Potency did it give?
A: Its Potency is active: 14.1 µM.

Q: `COc1cc(CN2CCC(C(=O)NC3CCCC3)CC2)cc(OC)c1O` was tested. Which Potency did it give?
A: The Potency was active: 8.91 µM.

Q: `Cc1ccc(C)n1NC(=O)c1ccc(Cl)cc1Cl` was tested. Which Potency did it give?
A: Its Potency is inconclusive: 35.5 µM [inhibitor, partial curve].

Q: How did the Potency turn out when `CCN(CC(=O)Nc1ccc2c(c1)CCC2)Cc1nc2ccccc2c(=O)[nH]1` was run?
A: The Potency was active: 50.1 µM.

Q: With `Cc1cc(C)n2cc(CSCc3ccco3)nc2n1` as the molecule, how does the Potency read?
A: Its Potency is active: 39.8 µM.

Q: How did the “activity change, negative = inhibition” value turn out when `O=C(NC1CCCCC1)c1ccc(Cn2c(SCc3ccccc3)nc3cccnc32)cc1` was run?
A: Its value is inactive: 3.32%.

Q: With `Cc1cccc(C(=O)N2CCCCC2CCN2CCCCC2)c1` (centres undefined) as the molecule, how does the “activity change, negative = inhibition” value read?
A: Its value is inactive: -6.96%.

Q: `CCN1C(=O)[C@H]2[C@@H](c3ccc(-c4ccc(Cl)c(Cl)c4)cc3)N[C@@](C)(C(=O)OC)[C@H]2C1=O` was tested. Which Potency did it give?
A: Its Potency is inconclusive: 50.1 µM [inhibitor, partial curve].

Q: How did the Potency turn out when `CC(=O)/C(=N/Nc1cccc(C)c1)N1CCOCC1` was run?
A: Its Potency is active: 50.1 µM.

Q: `CCCSC1=N/C(=C\C=C\c2ccco2)C(=O)S1` was tested. Which Potency did it give?
A: Its Potency is active: 31.6 µM.

Q: `CCc1ccc(-c2cc(C)no2)cc1S(=O)(=O)NCc1ccco1` was tested. Which Potency did it give?
A: The Potency was inconclusive: 50.1 µM [inhibitor, partial curve] and inconclusive: 28.2 µM [inhibitor, full curve].

Q: How did the Potency turn out when `O=C(OCC(=O)N1CCN(C(=O)c2ccco2)CC1)c1cncc(Br)c1` was run?
A: The Potency was inconclusive: 14.1 µM [inhibitor, partial curve, poor fit].

Q: With `CCOc1ccc(C2C(C#N)=C(N)SC(N)=C2C#N)cc1OC` as the molecule, how does the Potency read?
A: The Potency was inconclusive: 50.1 µM [inhibitor, partial curve].

Q: Which Potency does the source give for `CC(=O)Nc1ccc(C(=O)NCCc2ccccc2)cc1` here?
A: The Potency was active: 5.01 µM.

Q: `O=C(COC(=O)CCC(=O)c1ccc(F)cc1)Nc1ccc(F)cc1F` was tested. Which “activity change, negative = inhibition” value did it give?
A: The value was inactive: -23.1%.

Q: Which Potency does the source give for `COc1cccc(NC2CC(=O)N(CCc3ccccc3)C2=O)c1` (centres undefined) here?
A: The Potency was inconclusive: 70.8 µM [inhibitor, single point].

Q: Which Potency does the source give for `Cc1c(NC(=S)NC(=O)c2cccc3ccccc23)cccc1C(=O)O` here?
A: Its Potency is inconclusive: 50.1 µM [inhibitor, partial curve].

Q: `Cc1ccc(/C=N\NC(=O)Cc2cccn2C)o1` was tested. Which Potency did it give?
A: The Potency was inconclusive: 25.1 µM [inhibitor, full curve].

Q: How did the Potency turn out when `CCOC(=O)C1Sc2[nH]c(=O)sc2C(c2ccc(Cl)cc2)C1C(=O)OCC` (centres undefined) was run?
A: The Potency was inconclusive: 44.7 µM [inhibitor, partial curve].

Q: With `COc1ccc(NC(=O)c2c(OC)cccc2OC)c(OC)c1` as the molecule, how does the Potency read?
A: Its Potency is inconclusive: 79.4 µM [inhibitor, partial curve].

Q: For `C1CCC2(CC1)OCC1(CO2)COC2(CCCCC2)OC1`, which Potency is on record?
A: The Potency was inconclusive: 100 µM [inhibitor, single point].

Q: For `Cc1ccc2oc(-c3ccc(NC(=O)c4ccncc4)cc3O)nc2c1`, which “activity change, negative = inhibition” value is on record?
A: Its value is inactive: 4.01%.

Q: `COc1ccc([C@]23Cc4ccccc4C(O2)c2c(cc(-c4ccccc4)oc2=O)O3)cc1` was tested. Which Potency did it give?
A: The Potency was inconclusive: 7.94 µM [inhibitor, full curve, poor fit].

Q: How did the Potency turn out when `O=c1c(Cl)c(NCc2ccco2)cnn1C12CC3CC(CC(C3)C1)C2` was run?
A: The Potency was inconclusive: 39.8 µM [inhibitor, partial curve].

Q: With `COC(=O)[C@@]12CCCCN1[C@H](c1ccc(-c3ccc(OC)cc3)c(OC)c1)[C@@H]1C(=O)N(C)C(=O)[C@@H]12` as the molecule, how does the Potency read?
A: Its Potency is inconclusive: 39.8 µM [inhibitor, partial curve].
